# In PubChem BioAssay AID2528 (National Center for Advancing Translational Sciences (NCATS), 2010):
# Where “and” joins values, the source holds several entries; their conditions need not be identical. Equal entries are not always repeated. Hit rate of the full screen: of about 350,000 compounds, about 700 (0.2%) were called active. Calls follow the shape of the dose curve; as a rule, active = well fitted inhibition curve with a large enough effect; inconclusive = small, poorly fitted or top-dose-only effect; inactive = flat fitted curve, though single readings scatter. The list shows a part of the results, in another mix than the full data. A structure can be active in one record and inactive in another.
# Biological target: RecQ-like DNA helicase BLM (Homo sapiens) (UniProt P54132)
# Test: qHTS Assay for Inhibitors of Bloom's syndrome helicase (BLM); also: nearly all actives have a fitted effect of over 35% in size;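 as to activity change, negative = inhibition: plate controls were vehicle for no effect and no enzyme for full effect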
# Settings: recombinant BLM DNA unwinding, fluorescence dequenching; series mostly up to 56.1 µM; activity change, negative = inhibition: at the top concentration
# Potency is read from the fitted curve at half-maximal effect.
# Chain of UniProt P54132 (P54132 whole entry, looked up): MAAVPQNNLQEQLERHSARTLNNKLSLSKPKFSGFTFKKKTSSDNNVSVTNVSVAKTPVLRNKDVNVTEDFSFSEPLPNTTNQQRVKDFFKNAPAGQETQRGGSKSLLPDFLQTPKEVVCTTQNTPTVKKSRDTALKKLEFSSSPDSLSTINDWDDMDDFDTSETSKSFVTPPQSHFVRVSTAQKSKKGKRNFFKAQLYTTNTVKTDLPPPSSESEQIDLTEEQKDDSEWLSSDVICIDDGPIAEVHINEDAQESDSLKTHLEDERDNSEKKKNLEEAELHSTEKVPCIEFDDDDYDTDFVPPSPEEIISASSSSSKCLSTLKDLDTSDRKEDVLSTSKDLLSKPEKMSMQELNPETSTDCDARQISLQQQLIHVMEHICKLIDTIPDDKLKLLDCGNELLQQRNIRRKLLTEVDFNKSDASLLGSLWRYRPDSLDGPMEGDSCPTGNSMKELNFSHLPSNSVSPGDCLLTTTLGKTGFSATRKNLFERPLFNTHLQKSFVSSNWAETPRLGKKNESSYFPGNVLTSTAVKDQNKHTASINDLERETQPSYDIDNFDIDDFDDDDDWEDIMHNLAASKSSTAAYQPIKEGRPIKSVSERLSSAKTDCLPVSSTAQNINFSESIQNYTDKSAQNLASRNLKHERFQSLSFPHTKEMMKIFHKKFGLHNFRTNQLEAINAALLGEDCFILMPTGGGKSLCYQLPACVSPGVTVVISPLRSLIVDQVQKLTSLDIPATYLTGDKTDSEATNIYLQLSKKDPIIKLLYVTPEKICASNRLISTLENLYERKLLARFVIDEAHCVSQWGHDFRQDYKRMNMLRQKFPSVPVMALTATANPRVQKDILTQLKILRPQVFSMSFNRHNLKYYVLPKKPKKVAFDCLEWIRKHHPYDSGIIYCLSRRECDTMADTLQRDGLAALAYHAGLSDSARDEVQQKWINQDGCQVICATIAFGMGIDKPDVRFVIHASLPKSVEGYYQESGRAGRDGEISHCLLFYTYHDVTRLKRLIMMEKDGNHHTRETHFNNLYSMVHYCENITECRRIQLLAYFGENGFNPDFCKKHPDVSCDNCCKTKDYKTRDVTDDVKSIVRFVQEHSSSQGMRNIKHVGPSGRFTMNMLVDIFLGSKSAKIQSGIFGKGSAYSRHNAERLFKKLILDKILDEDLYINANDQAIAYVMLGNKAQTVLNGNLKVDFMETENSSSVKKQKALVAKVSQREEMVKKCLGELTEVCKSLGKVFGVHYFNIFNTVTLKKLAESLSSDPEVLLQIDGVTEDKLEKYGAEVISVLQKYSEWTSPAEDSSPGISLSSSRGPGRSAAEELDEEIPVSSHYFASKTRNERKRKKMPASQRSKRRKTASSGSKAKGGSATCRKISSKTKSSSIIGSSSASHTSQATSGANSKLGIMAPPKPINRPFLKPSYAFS
Structure (SMILES),Potency,"activity change, negative = inhibition"
CC(N)C(O)c1ccc(O)c(O)c1 (stereo not given),inactive,
C[N+]1(C)[C@@H]2CC(OC(=O)[C@@H](CO)c3ccccc3)C[C@@H]1[C@H]1O[C@H]12 (stereo not given in full),,inactive: -1.08%
C=C(C)C1Cc2c(ccc3c2OC2COc4cc(OC)c(OC)cc4C2C3=O)O1 (stereo not given),,inactive: -13.3%
CN1C[C@H](C(=O)N[C@@]2(C)O[C@@]3(O)C4CCCN4C(=O)C(Cc4ccccc4)N3C2=O)C[C@H]2c3cccc4[nH]cc(c34)C[C@H]21 (stereo not given in full),,inactive: -1.4%
Brc1c(NC2=NCCN2)ccc2nccnc12,inactive,
CC(C)N(CC[C@@](C(N)=O)(c1ccccc1)c1ccccn1)C(C)C,,inactive: 2.55% [at 21.4 µM]
CNCCC(Oc1ccc(C(F)(F)F)cc1)c1ccccc1 (stereo not given),inactive,
CC(=O)c1c(O)c(C)c(O)c(Cc2c(O)c3c(c(C(=O)/C=C/c4ccccc4)c2O)OC(C)(C)C=C3)c1O,,inactive: -12.9%
NN=C(N)N,inactive,
CC[C@H]1CN2CCc3cc(OC)c(OC)cc3[C@H]2C[C@@H]1C[C@@H]1NCCc2cc(OC)c(OC)cc21,,inactive: -6.36%
C[C@]12CCC(=O)C=C1CC[C@@H]1[C@@H]2CC[C@]2(C)C(=O)CC[C@@H]12,inactive,
Cc1ccccc1N1C(=O)/C(=C/c2ccco2)C(=O)NC1=S,active: 0.891 µM,
O=C1NCN(c2ccccc2)C12CCN(C[C@H]1COc3ccccc3O1)CC2,,inactive: -4.03%
C=CCN1CC[C@@]2(C)c3cc(O)ccc3CC1[C@@H]2C,,inactive: 5.39%
CCCC[N+]1(C)C2CC(OC(=O)C(CO)c3ccccc3)CC1C1OC12 (stereo not given),inactive,
Oc1ccc(Cl)cc1Cc1cc(Cl)ccc1O,inactive,
C/C(O)=C(\C#N)C(=O)Nc1cc(Br)ccc1Br,,inactive: -6.81%
C[C@H]1COC2=C1C(=O)C(=O)c1c2ccc2c1CCCC2(C)C,inactive,
O=c1cc(-c2ccc(O)c(O)c2)oc2cc(O)cc(O)c12,inactive and active: 35.5 µM,
COc1ccc(OC)c(C(O)C(C)N)c1 (stereo not given),inactive,
O=C(OCC1O[C@@H](OC(=O)c2cc(O)c(O)c(O)c2)[C@@H](OC(=O)c2cc(O)c(O)c(O)c2)[C@@H](OC(=O)c2cc(O)c(O)c(O)c2)[C@@H]1OC(=O)c1cc(O)c(O)c(O)c1)c1cc(O)c(O)c(O)c1 (stereo not given in full),active: 0.501 µM,
N#CC(C#N)=NNc1ccc(OC(F)(F)F)cc1,,inactive: -20.2%
CN1CCN(C2=Nc3cc(Cl)ccc3Nc3ccccc32)CC1,inactive,
CC[C@@H]1CN2CCc3cc(OC)c(OC)cc3[C@H]2C[C@@H]1C[C@H]1NCCc2cc(OC)c(OC)cc21,,inactive: 1.72% [at 21.4 µM]

Structure (SMILES),Potency,"activity change, negative = inhibition"
CN1CC(CNC(=O)OCc2ccccc2)CC2c3cccc4c3c(cn4C)CC21 (stereo not given),,inactive: -0.885%
Cc1c(C(=O)c2cccc3ccccc23)c2cccc3c2n1[C@@H](CN1CCOCC1)CO3,,inactive: -11.1%
CC(=O)O[C@H]1C(=O)[C@@]2(C)C([C@H](OC(=O)c3ccccc3)[C@]3(O)C[C@H](OC(=O)[C@H](O)[C@@H](NC(=O)c4ccccc4)c4ccccc4)C(C)=C1C3(C)C)[C@]1(OC(C)=O)CO[C@@H]1C[C@@H]2OC(=O)[C@H](C)NC(=O)c1ccc(-c2c3ccc(=O)cc-3oc3cc(O)ccc23)c(C(=O)O)c1 (stereo not given in full),active: 3.16 µM,
N[C@@H](CCCP(=O)(O)O)C(=O)O,,inactive: -4.34%
CNc1ccc2oc(C[C@H]3O[C@@]4(CC[C@H]3C)O[C@H]([C@H](C)C(=O)c3ccc[nH]3)[C@H](C)C[C@H]4C)nc2c1C(=O)O,,inactive: -27.5%
COc1ccc2c(c[n+](C)c3c4cc5c(cc4ccc23)OCO5)c1OC,inactive,
O=C(Nc1ccc(Oc2ccc(Cl)cc2)c(Cl)c1)c1cc(I)cc(I)c1O,,inactive: -29%
NC(N)=NOCCC(N)C(=O)O (stereo not given),,inactive: 5.64%
CN1CCC[C@@H]1c1cccnc1,,inactive: -11.2%
C[C@]12CC[C@@H]3c4ccc(OC(=O)N(CCCl)CCCl)cc4CC[C@H]3[C@@H]1CC[C@@H]2O,active: 14.1 µM,
COc1ccc2c3c([nH]c2c1)C(C)=NCC3,inactive,
CCCN1CCC[C@@H]2Cc3[nH]ncc3C[C@H]21,inactive,
C[C@@H](N)Cc1cnc[nH]1,,inactive: -2.39%
O=C1NC(=S)N(c2ccccc2)C(=O)/C1=C/c1ccco1,active: 22.4 µM,
CCCN1CCO[C@@H]2c3cc(O)ccc3OC[C@@H]21,,inactive: 6.68%
CCC1CN2CCc3cc(OC)c(OC)cc3C2CC1CC1NCCc2cc(OC)c(OC)cc21 (stereo not given),,inactive: -4.37%
CC[C@@H](CO)NC(=O)[C@H]1C=C2c3cccc4c3c(cn4C)C[C@H]2N(C)C1,,inactive: -2.69%
C[N+]1(C)CCN(c2ccccc2)CC1,,inactive: -5.56%
NCCc1ccc(O)cc1,inactive,
NC[C@@H](CC(=O)O)c1ccc(Cl)cc1,inactive,
C=C(C)[C@H]1Cc2c(ccc3c2O[C@@H]2COc4cc(OC)c(OC)cc4[C@@H]2C3=O)O1,inactive,
COC(=O)C1=CCCN(C)C1,inactive,
CC(C)[C@@]1(NC(=O)[C@H]2CC3c4cccc5[nH]cc(c45)C[C@H]3N(C)C2)O[C@@]2(O)C3CCCN3C(=O)[C@@H](Cc3ccccc3)N2C1=O (stereo not given in full),,inactive: -4.04%
Fc1ccc(C(OCCN2CCN(CCCc3ccccc3)CC2)c2ccc(F)cc2)cc1,inactive,

Structure (SMILES),Potency,"activity change, negative = inhibition"
COC(=O)[C@@H](N)CCCN=C(N)N[N+](=O)[O-],inactive,
CC(C)C[C@H]1C(=O)N2CCCC2[C@]2(O)O[C@](NC(=O)[C@@H]3C=C4c5cccc6[nH]c(Br)c(c56)C[C@H]4N(C)C3)(C(C)C)C(=O)N12 (stereo not given in full),,inactive: -8.88%
C=C(C)C1CNC(C(=O)O)C1CC(=O)O (stereo not given),,inactive: 2.71%
CNCCc1c[nH]c2ccc(O)cc12,,inactive: 0.493%
CCN1/C(=C\C=C\C2=[N+](CC)c3ccccc3C2(C)C)C(C)(C)c2ccccc21,active: 7.94 µM,
COc1ccc(Cc2nccc3cc(OC)c(OC)cc23)cc1OC,inactive,
CC(C)(O)[C@@H]1[C@H]2OC(=O)[C@@H]1[C@]1(O)C[C@H]3O[C@]34C(=O)O[C@H]2[C@@]14C (tested in a mixture with another compound),,inactive: 3.4%
O=C1NC(=S)NC(=O)C1=Cc1ccc2c(c1)CCN2CCCCl,active: 15.8 µM,
CN1CCCC1c1cccnc1 (stereo not given),,inactive: 5.39%
COc1ccc2c(c1OC)C(=O)O[C@@H]2C1c2cc3c(cc2CCN1C)OCO3 (stereo not given in full),,inactive: -1.26%
O[C@@H]1CCCC[C@H]1N1CCC(c2ccccc2)CC1,inactive,
O=C1CCCN1CC#CCN1CCCC1,inactive,
C[C@]12N[C@H](Cc3ccccc31)c1ccccc12,,inactive: 1.44%
CCCN1CCCC2Cc3[nH]ncc3CC21 (stereo not given),,inactive: 4.33%
COc1ccc(OC)c(N2C(=O)/C(=C/c3ccco3)C(=O)NC2=S)c1,active: 1.58 µM,
N[C@H](CCCCCP(=O)(O)O)C(=O)O,inactive,
C[n+]1c2ccccc2nc2ccc(NCCO)cc21,active: 17.8 µM,
COc1nc(C)nc(Cl)c1NC1=NCCN1,inactive,
CCn1cc(C(=O)O)c(=O)c2ccc(C)nc21,inactive,
CCC1C(=O)OC[C@H]1Cc1cncn1C (stereo not given in full),,inactive: -12.3%
CC(C)(C)NCC(O)c1ccccc1Cl (stereo not given),,inactive: -7.82%
C[C@@H](Cc1ccc(OCC(=O)O)cc1)NC[C@H](O)c1cccc(Cl)c1,,inactive: 6.59%
O=C1NC(=S)N(c2ccc(F)cc2)C(=O)/C1=C/c1ccco1,active: 3.16 µM,
CCC1C(=O)OCC1Cc1cncn1C (stereo not given),inactive,

Structure (SMILES),Potency,"activity change, negative = inhibition"
CC[C@@H]1CN2CCc3cc(OC)c(OC)cc3[C@@H]2C[C@@H]1C[C@H]1NCCc2cc(OC)c(OC)cc21,,inactive: -9.45%
CC(C)NC[C@@H](O)COc1cccc2[nH]ccc12,inactive,
CNCC[C@H](Oc1ccc(C(F)(F)F)cc1)c1ccccc1,inactive,
C=C1C(=O)O[C@@H]2C[C@@H](C)[C@@H]3C=CC(=O)[C@@]3(C)[C@@H](OC(=O)CC(=O)O[C@H]3[C@@H]4C(=C)C(=O)O[C@@H]4C[C@@H](C)[C@@H]4C=CC(=O)[C@]43C)[C@H]12,active: 22.4 µM,
O=C1C(=O)c2ccccc2-c2ccccc21,active: 20 µM,
NC[C@@H]1O[C@H](O[C@H]2[C@H](O)[C@@H](O[C@H]3[C@H](O)[C@H](N)C[C@H](N)[C@H]3O[C@@H]3O[C@H](CO)[C@@H](O)[C@H](O)[C@@H]3N)O[C@H]2CO)[C@@H](N)[C@H](O)[C@@H]1O,,inactive: 0.484% [at 21.4 µM]
CCCN(CCC)[C@@H]1CCc2cccc(O)c2C1,inactive,
COC(=O)C1=C(C)NC(C)=C(C(=O)OC)C1c1ccccc1[N+](=O)[O-],inactive,
COc1ccc(OC)c(N2C(=O)NC(=O)/C(=C\c3ccc([N+](=O)[O-])s3)C2=O)c1,active: 15.8 µM,
CNC(C)[C@H](O)c1ccccc1 (stereo not given in full),,inactive: -12.7%
CCCCn1c(NC(=O)c2ccc(Br)o2)c(C(=O)OCC)c2nc3ccccc3nc21,active: 22.4 µM,
CN1CC[C@@]23CCCC[C@@H]2[C@@H]1Cc1ccc(O)cc13,,inactive: 3.52%
C=CCN1CC[C@]23c4c5ccc(O)c4OC2C(=O)CC[C@@]3(O)C1C5 (stereo not given in full),,inactive: -2.31%
CNC(C)C(O)c1ccccc1 (stereo not given),,inactive: 4.62%
O=C(O[C@@H]1Cc2c(O)cc(O)cc2O[C@@H]1c1cc(O)c(O)c(O)c1)c1cc(O)c(O)c(O)c1,,inactive: -4.87%
CC[C@H]1CN2CCc3cc(OC)c(OC)cc3[C@@H]2C[C@@H]1C[C@H]1NCCc2cc(OC)c(OC)cc21,,inactive: -9.93%
Cc1ccc(N2C(=O)NC(=O)/C(=C\c3ccoc3)C2=O)cc1,,inactive: 3.4%
O=C1NC(=O)N(Cc2ccccc2)C(=O)/C1=C/C=C/c1ccco1,,inactive: -29.5%
Cc1ccc(N2C(=O)NC(=O)/C(=C/c3ccoc3)C2=O)cc1,active: 15.8 µM,
CCNC(=O)[C@H]1O[C@@H](n2cnc3c(N)ncnc32)[C@H](O)[C@@H]1O,,inactive: -5.57%
Cc1cccc(C)c1NC1=NCCCS1,inactive,
COC(=O)N1CCN(C(=O)Cc2ccc(Cl)c(Cl)c2)[C@H](CN2CCCC2)C1,,inactive: 3.6%
C[N+]1(C)[C@@H]2CC[C@H]1CC(OC(=O)C(CO)c1ccccc1)C2 (stereo not given in full),inactive,
